This is an account of results in ChEMBL document CHEMBL4888484, “Replenishing the malaria drug discovery pipeline: Screening and hit evaluation of the MMV Hit Generation Library 1 (HGL1) against asexual blood stage Plasmodium falciparum ,using a nano luciferase reporter read-out” (2022).

Molecules are shown by their SMILES. Out of some 150,000 compounds screened, about 540 (0.36%) showed an effect of 50% or more. The list shows a part of the results.

The test system of this assay is Plasmodium falciparum. Kind of assay: Primary screen in NF54 nanoGlo assay, in single point, at 2uM, 72h; a lower Z score goes with more inhibition. The following applies: timepoint 72 hour. It counts as functional, Erythrocyte.
One may read the % Inhibition as the change of the read-out against control, counted positive when it falls. As for `COCCN(Cc1ccco1)S(=O)(=O)Cc1cc(C)no1`, the “% Inhibition” value is -3% and the Z score was 0.25.

`CC1CCN(C(=O)c2ccccc2NC(=O)C2CCN(C)CC2)CC1`: the “% Inhibition” value is given as -3% and the Z score worked out at 0.35.

On to `COc1ccc(C(=O)N(Cc2cc(NC(=O)CC(C)C)ccc2N(C)C)C[C@H]2CCCO2)cc1`, for which the “% Inhibition” value is listed as -7% and the Z score was determined as 1.38.

Take `COc1cccc(CN(C(=O)NC[C@H](C)OC)C2CCCC2)c1OC`: the “% Inhibition” value was -3% and the Z score amounted to 0.63.

`Cc1cc(C)nc(N[C@H]2CCCN(C(N)=O)C2)n1`: the “% Inhibition” value is given as -6% and the Z score came to 1.23.

For `CC(C)N1CCN(C(=O)c2csc(NC(=O)c3ccc(Cl)c(Cl)c3)n2)CC1`, the “% Inhibition” value is given as -2% and the Z score came to 0.47.

As for `COC(=O)Cc1cccc(NC(=O)NCc2ccncc2)n1`, the “% Inhibition” value was determined as 6% and the Z score is -1.17.

Turning to `CCCCN1C(=O)CC[C@@H]2CN(C(=O)c3ccc(=O)[nH]n3)CC[C@@H]21`, the “% Inhibition” value is on record as -2% and the Z score amounted to 0.44.

Regarding `COc1ncccc1NC(=O)N1CCOCC1`, the “% Inhibition” value is reported as -14% and the Z score amounted to 1.73.

Regarding `CCn1c(CC2CCN(C(=O)CCc3c[nH]cn3)CC2)nn(C)c1=O`, the “% Inhibition” value was -13% and the Z score was 1.75.

Take `CC(C)n1cc(CN(C)Cc2ccc3c(ccn3C)c2)cn1`: the “% Inhibition” value turned out to be 3% and the Z score is reported as -0.4.

`COC[C@@](C)(O)CNC(=O)NC1CCCCC1`: the “% Inhibition” value was -17% and the Z score is reported as 2.54.

Consider `CC(C)NC(=O)Nc1ccc(-c2cn3c(n2)CCCC3)cc1`, for which the “% Inhibition” value is reported as -30% and the Z score is recorded as 3.49.

As to `Cc1nc2c(s1)CCC[C@@H]2NC(=O)c1cn(C)c(=O)[nH]c1=O`, the “% Inhibition” value was determined as 5% and the Z score was -0.75.

Turning to `CC(Oc1ccc2c(c1)C(c1ccccc1)N(Cc1ccccc1F)CC2)C(=O)NC1CC1` (centres undefined), the “% Inhibition” value stood at 49% and the Z score is -5.45.

Turning to `CC(C)c1ccc(C(=O)NC(C)(C)[C@H](O)C(F)(F)F)nc1`, the “% Inhibition” value came out at 8% and the Z score is listed as -0.96.

For the compound `CC(C)C[C@@H]1N[C@H](C(=O)NCCN2CCCC2)Cc2cn(C)c3cccc1c23`, the “% Inhibition” value turned out to be 17% and the Z score is -1.94.

For `Cc1cccc(NC(=O)c2cccc(S(=O)(=O)NCC3CC3)c2)n1`, the “% Inhibition” value amounted to 0% and the Z score worked out at 0.03.

On to `COc1ccc(S(=O)(=O)N2CCC3(CC2)N[C@@H](CC(C)C)C(=O)N3CC2CC2)cc1`, for which the “% Inhibition” value is -14% and the Z score amounted to 1.6.

On to `C[C@]1(C(=O)Nc2ncccc2O)CCCNC1`, for which the “% Inhibition” value was -7% and the Z score is on record as 0.93.

As for `CC(C)n1cc(C(=O)N(CC2CC2)C[C@H]2CN(C)CCO2)nn1`, the “% Inhibition” value was -8% and the Z score is on record as 1.11.

For the compound `O=C(NCCc1cc(F)c(F)c(F)c1)c1csnn1`, the “% Inhibition” value is -7% and the Z score is given as 0.85.

For the compound `Cc1cc(N2CCC[C@]3(CCC(=O)N(C4CCCC4)C3)C2)ccn1`, the “% Inhibition” value stood at 9% and the Z score is on record as -1.46.

Turning to `Cc1n[nH]c(C)c1CCC(=O)NCCC(=O)Nc1ccccc1`, the “% Inhibition” value was -9% and the Z score came out at 1.36.

`Cc1cnc([C@@H](C)CNC(=O)Nc2ncnn2C)s1`: the “% Inhibition” value was -12% and the Z score is on record as 1.19.

Take `CCS(=O)(=O)CCNC1CCCC1c1ccc(F)cc1` (centres undefined): the “% Inhibition” value is given as -1% and the Z score is on record as 0.1.

For `C=C(C)COc1cccc(NC(=O)N2CC(=O)N(CC3CC3)C2)c1`, the “% Inhibition” value is on record as -16% and the Z score stood at 3.03.

In the case of `CC(C)c1nc(N2CCC(N3CCC[C@H](C(=O)NCc4ccccn4)C3)CC2)no1`, the “% Inhibition” value is -9% and the Z score is 1.8.

Consider `CCOc1cc(C(=O)N(C)[C@H]2CCCN(C)C2)n[nH]1`, for which the “% Inhibition” value is -6% and the Z score amounted to 0.88.

Consider `CC(C)(C(=O)N1C2CCNCC1CC2)C1CCCC1` (centres undefined), for which the “% Inhibition” value worked out at 13% and the Z score is reported as -1.94.

With `CCN(C(=O)CCCc1ccccn1)c1ccc(OC)nc1`, the “% Inhibition” value was determined as 1% and the Z score is on record as -0.12.

On to `O=C(Nc1ccccc1Cl)OCc1cncs1`, for which the “% Inhibition” value was found to be 36% and the Z score is given as -0.86.

As to `CC(C)(NC(=O)c1cccc(C(F)F)c1F)[C@@H]1CCCCO1`, the “% Inhibition” value is given as -6% and the Z score worked out at 0.94.

Turning to `CCc1cc2c(Nc3ccc4c(c3)OCCO4)ncnc2s1`, the “% Inhibition” value is recorded as -26% and the Z score is given as 2.36.

Regarding `COc1ccc(F)cc1C(=O)N1CCC[C@H](c2cnn(C)c2)C1`, the “% Inhibition” value was -13% and the Z score came to 1.69.

For the compound `CCc1ccc(CNC(=O)c2cccc(NC(=O)c3nnc(COC)s3)c2)cc1`, the “% Inhibition” value was -8% and the Z score is given as 0.84.

Take `COc1cc(CNCc2ccc(C3OCCO3)cc2)ccc1C`: the “% Inhibition” value is recorded as -1% and the Z score is recorded as 0.12.

With `c1ccc(-c2nc3c4ccccc4nc(NCc4ccco4)n3n2)cc1`, the “% Inhibition” value is on record as -5% and the Z score amounted to 0.86.

`COc1ccc(C(=O)NCC(=O)NO[C@@H]2CCCCO2)cc1`: the “% Inhibition” value is 1% and the Z score is given as -0.15.

In the case of `COc1ccc(CN2CC(=O)N(c3cccc(Cl)c3)C3CS(=O)(=O)CC32)cc1` (centres undefined), the “% Inhibition” value is recorded as -5% and the Z score was 0.65.

For `O=C(NCc1ccc(F)cc1F)C1CCN(c2nc3nc[nH]c(=O)c3s2)CC1`, the “% Inhibition” value was -7% and the Z score was determined as 0.65.

Regarding `Cc1nc(C)c(C)c(N(C)CCC(=O)O)n1`, the “% Inhibition” value is reported as -33% and the Z score came to 3.89.
